Data published in the supplement of paper PMC3334620.
Over roughly 33,000 sequences, “E-score (-0.5 to 0.5)” has its median near -0.013; the highest 2% begin near 0.3. This is one part of the list.

target: T1, Msn1 (UniProt P22148); test: PBM E-score (8-mer binding enrichment) (E-score (-0.5 to 0.5)); higher = stronger / more preferred TF binding; most listed sequences are background and not binding sites; conditions: protein concentration: 200 nM; construct: GST-full length
T1 sequence: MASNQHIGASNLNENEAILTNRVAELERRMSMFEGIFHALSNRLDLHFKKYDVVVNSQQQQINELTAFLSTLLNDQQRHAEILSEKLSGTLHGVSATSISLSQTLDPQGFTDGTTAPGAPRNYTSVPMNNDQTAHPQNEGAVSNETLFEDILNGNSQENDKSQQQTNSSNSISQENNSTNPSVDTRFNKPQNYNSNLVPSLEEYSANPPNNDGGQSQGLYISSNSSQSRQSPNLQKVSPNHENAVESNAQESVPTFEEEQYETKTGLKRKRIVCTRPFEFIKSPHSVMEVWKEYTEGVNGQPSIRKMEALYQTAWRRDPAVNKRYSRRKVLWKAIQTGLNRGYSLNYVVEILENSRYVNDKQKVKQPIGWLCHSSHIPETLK
Summary of the method: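 PURExpress in vitro transcription/translation supplied GST-tagged yeast transcription factors, either full-length or DNA-binding domain. Applied at about 100-200 nM to universal all-10-mer Agilent arrays double-stranded by primer extension, the bound protein was detected with fluorescent anti-GST. E-scores, modified Wilcoxon-Mann-Whitney statistics, were given by the Universal PBM Analysis Suite to ungapped eight-base words pooled with their reverse complements after masliner normalisation.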

| Sequence | PBM E-score |
| --- | --- |
| CTGTCCTC | 0.197 |
| GACGTAGC | -0.0574 |
| ACGCTACG | -0.0487 |
| GTCAGGTA | -0.0461 |
| ATAGAGCA | -0.102 |
| GTATGTGA | 0.0957 |
| CGTAAACA | 0.114 |
| CATATGTA | 0.245 |
| GGACCAAC | -0.114 |
| TAGCTTCA | -0.119 |
| CGACATGA | 0.207 |
| AGCTGACG | -0.156 |
| ATATTCTA | 0.07 |
| TAGTGATA | -0.167 |
| CTACTTCC | -0.0321 |
| AAATGGGC | 0.0265 |
| CGAGGTAC | 0.0203 |
| CTTCATTA | 0.0655 |
| CAGTACGC | -0.0992 |
| CTGACTCA | -0.0338 |
| ATAGTTTC | -0.111 |
| ACTAGATA | 0.0228 |
| CAATGTGG | 0.111 |
| CCTAGGAA | 0.13 |
| ATAAAGTG | 0.154 |

| Sequence | PBM E-score |
| --- | --- |
| CTGAAGCC | -0.195 |
| AATGGAAT | 0.238 |
| CCTTTACG | 0.0807 |
| GATGTCTA | 0.239 |
| CAGTCGAA | -0.161 |
| AAGTTATT | 0.0732 |
| GGCCATCA | 0.058 |
| ACCTTCAT | -0.0814 |
| ACGCTAAA | -0.0302 |
| GATCTGAA | -0.0317 |
| ATTTTGTC | 0.468 |
| GGCGAGAC | -0.0776 |
| GCCTCTAA | -0.175 |
| CGATAACC | 0.0193 |
| CCTTTCCA | -0.12 |
| ATCCATCA | -0.196 |
| GGTCAGAC | -0.0518 |
| AATACTCC | -0.0911 |
| CAGTGCCC | -0.0952 |
| CTTATCCC | -0.042 |
| CGTCGGGC | -0.157 |
| GAACTAAC | -0.0107 |
| AACTGGAT | 0.0657 |
| AATCTATC | -0.019 |
| ACTGAGGC | 0.0565 |

| Sequence | PBM E-score |
| --- | --- |
| CTGCCCGC | 0.0264 |
| GCACGGGA | -0.12 |
| GACCTTTA | 0.0307 |
| GAAGCGTA | -0.176 |
| CGGTTATA | 0.069 |
| AACATCTT | 0.091 |
| AGCATCGA | 0.0817 |
| TGTGCGAA | -0.0498 |
| ACCAGGCG | -0.245 |
| GAAGTCTA | 0.0524 |
| ATGCAAGA | 0.035 |
| AGGATAAT | -0.00869 |
| GCAATGAC | 0.0919 |
| TCCCACAA | 0.0769 |
| CGGTAGTC | -0.00298 |
| AAAACATT | 0.133 |
| CCATTAAG | -0.0405 |
| CGTCGAGA | 0.0856 |
| AATAACTA | 0.152 |
| GACGTGGC | -0.185 |
| CGGAGTAA | 0.0604 |
| AGAAATAT | 0.181 |
| ATTAAAAT | 0.273 |
| TAATAAGA | 0.0818 |
| CTTATTCA | 0.0853 |

| Sequence | PBM E-score |
| --- | --- |
| CGGGACTC | 0.0112 |
| ATCCCTGG | -0.198 |
| AACATCGC | -0.0399 |
| GCTTTGGA | 0.161 |
| AATTGGAT | 0.157 |
| CAACTCCA | -0.00874 |
| CAAGTAGG | -0.0827 |
| GACCTCTA | -0.102 |
| AAACACGC | 0.106 |
| ACGTCGCG | 0.138 |
| GTCATAAA | 0.275 |
| GACGATCA | -0.139 |
| ATCCGCGC | 0.0649 |
| TCCGCAGA | 0.123 |
| AATCTCGG | 0.157 |
| GATCAACA | 0.00359 |
| CGTGAGAC | -0.0355 |
| AAACCTGG | 0.0187 |
| CACGAGCA | -0.15 |
| CCCGCGGC | 0.057 |
| CCCTCAGC | -0.166 |
| AAATCACG | -0.0181 |
| AGCCCCGG | -0.0483 |
| GGCCTCAA | -0.0718 |
| CTCCAAGC | -0.0605 |

| Sequence | PBM E-score |
| --- | --- |
| GGGCGCGA | 0.0277 |
| AGAGGAAG | -0.202 |
| CATACATG | 0.23 |
| ATGTTACG | 0.0808 |
| ACTCGCAA | -0.0152 |
| CAGCCTCC | -0.357 |
| ACGCCCGG | -0.113 |
| GGGTTTTA | -0.0678 |
| CGGGGCTA | -0.274 |
| AAGTCTTG | 0.0419 |
| CTTTACTC | -0.00893 |
| ATAAAGTA | 0.243 |
| AAAAGCTA | -0.0112 |
| CACCCTCA | -0.215 |
| AGTACCCA | -0.0741 |
| TCCTTAAA | 0.134 |
| CTGCTCCC | -0.16 |
| AGGAATTG | 0.105 |
| GGCCGCGA | -0.0211 |
| CCGAGTAG | 0.0326 |
| ATCCCGGG | 0.0417 |
| CAGCTGAA | 0.022 |
| CGCACAAC | -0.14 |
| TCTTCACA | 0.208 |
| ATCTCCGA | 0.206 |

| Sequence | PBM E-score |
| --- | --- |
| GTGATATA | -0.167 |
| CACCTAGC | -0.116 |
| ACTGAGTC | 0.101 |
| ATGAAGCC | 0.00088 |
| ACTAACCT | -0.0635 |
| CTATACCC | -0.113 |
| CTTACCAA | 0.0535 |
| TGTCACAA | 0.378 |
| CCAACACG | -0.144 |
| GCCTGTCC | 0.153 |
| CGGACGAG | 0.0588 |
| GTACCGCA | 0.0295 |
| AATGAATA | -0.0334 |
| GATGCTGA | -0.264 |
| ACGGAAAG | 0.174 |
| GACGCTAC | -0.115 |
| ACGACCCC | -0.273 |
| CTACTAGC | 0.00983 |
| GGCCCCCA | -0.442 |
| ACTCAAAC | 0.145 |
| GACTTACC | 0.103 |
| CTCAGCGC | -0.102 |
| AACAATTG | 0.116 |
| GGGGGGTA | -0.0806 |
| CAGATGAC | -0.0534 |

| Sequence | PBM E-score |
| --- | --- |
| AACGGCAT | 0.144 |
| ACAACAGT | 0.165 |
| GCAACGGA | 0.168 |
| CAGTACCG | 0.0766 |
| TAAGCAAA | 0.0285 |
| GTTTGAGA | 0.0155 |
| CGTAGAAC | -0.119 |
| ATAGAAGC | 0.144 |
| ACAATCTC | 0.0114 |
| AACTCACC | -0.253 |
| GACGTTTA | 0.164 |
| CTGTCTAC | -0.0627 |
| GAAAAATC | 0.136 |
| AGGATGTA | -0.0489 |
| ACTGGCCG | -0.185 |
| AAAATCGG | 0.052 |
| ACCTGTAT | -0.108 |
| GTCCTGGA | 0.265 |
| CCGCGTTC | -0.0241 |
| GACGATGA | -0.00724 |
| CAGGGGGC | -0.419 |
| AGCGGTAG | -0.115 |
